Measured values as given in the supplement of paper PMC3334620.
Whole data set: some 33,000 sequences, median “E-score (-0.5 to 0.5)” near -0.016, cut for the highest 2% near 0.31. The list shows a part of the results.

biological target: Cst6 (UniProt P40535); experiment: PBM E-score (8-mer binding enrichment) (E-score (-0.5 to 0.5)); higher = stronger / more preferred TF binding; most listed sequences are background and not binding sites; settings: protein concentration: 200 nM; construct: GST-DNA-binding domain
Method in brief: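 Universal all-10-mer Agilent arrays, fresh or stripped once, were converted to double-stranded form by primer extension. GST-tagged yeast transcription factors from PURExpress in vitro transcription/translation, full-length or DNA-binding domain only, were applied at about 100-200 nM and detected with fluorescent anti-GST. After masliner normalisation, the Universal PBM Analysis Suite scored each ungapped eight-base word together with its reverse complement by E-score.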

| Sequence | PBM E-score |
| --- | --- |
| GTTTAACA | -0.0323 |
| GAACAGGA | -0.0633 |
| AGTGATAC | 0.0425 |
| ATGTCTAA | 0.196 |
| CCTCCACA | -0.107 |
| CAAGTTGC | -0.0682 |
| CGCCGTTA | 0.124 |
| GGTTCCCA | -0.187 |
| GGAATGAC | 0.255 |
| ATAACCAC | 0.0196 |
| GTCACGAC | 0.203 |
| CCCAACAG | -0.37 |
| AAATCAGT | 0.106 |
| ATTGGAGC | 0.0474 |
| CAAACGCC | 0.0643 |
| CAGACGAC | -0.244 |
| ACGTTAGA | 0.234 |
| AAGTCACA | 0.119 |
| ACGTTCAT | 0.113 |
| AAGAATCT | -0.146 |
| GACACCCA | -0.0565 |
| GGGCCAGA | -0.195 |
| ACTCTTAG | -0.0755 |
| GATCTCCA | -0.109 |
| ATCCGCCA | -0.244 |

| Sequence | PBM E-score |
| --- | --- |
| GATATCGA | -0.00685 |
| GAACCAAC | -0.0562 |
| GATACGAC | 0.0285 |
| GGCTTCCC | -0.235 |
| AGGTCGAT | 0.00303 |
| ATCATGTG | 0.0829 |
| AACTTAGT | -0.00478 |
| ATAATGCG | -0.0118 |
| GGCTCCCC | -0.226 |
| CGGGATAC | -0.233 |
| ACTGATCG | -0.131 |
| GCCTGGGA | -0.176 |
| AAACTACA | 0.134 |
| ACGGCAGA | 0.064 |
| CATCGAAC | 0.0435 |
| CTCCCAGA | -0.297 |
| GCCATGGC | -0.0795 |
| ACAGAAGC | 0.106 |
| AGCACCCA | -0.102 |
| ATACGAAC | 0.116 |
| GAGGGGGA | -0.31 |
| AGTTCCTA | 0.048 |
| CGTCACAG | 0.424 |
| ACGCACAC | 0.087 |
| AGTGTGAT | 0.187 |

| Sequence | PBM E-score |
| --- | --- |
| ATAAGCGA | 0.127 |
| ATTGCACA | 0.0846 |
| CGCACGAC | 0.00764 |
| CGGGGAGC | -0.101 |
| GAGAAGTA | 0.0248 |
| ACCCACCT | -0.293 |
| AGTCGAAT | -0.101 |
| AACCGTTC | -0.027 |
| AGGTGGGC | -0.289 |
| CCTGTCAC | 0.00819 |
| TATAACAA | 0.249 |
| ATTTCGTC | 0.266 |
| CCCGAGGG | -0.305 |
| GTGAAGTA | 0.0577 |
| AATGAGAA | 0.0521 |
| CCTGTACC | -0.27 |
| CCGACAAC | 0.0825 |
| ATTCCCAC | 0.0107 |
| AATGAGGC | 0.0379 |
| GCAATCAC | 0.025 |
| TAGGCAAA | 0.136 |
| AAAGGCGG | 0.0337 |
| GCACTTCC | -0.181 |
| CCTCCGAA | -0.293 |
| GAACAGGC | -0.075 |

| Sequence | PBM E-score |
| --- | --- |
| AATAGCGA | 0.0714 |
| AAACCACT | -0.0138 |
| GCCCGGAC | -0.261 |
| CTGATTGA | 0.0486 |
| ACTCGCTA | -0.192 |
| AATACCTG | -0.113 |
| AATAGGTC | 0.00662 |
| ACCGATTA | 0.0195 |
| TACTATAA | 0.171 |
| CAGCAACC | -0.226 |
| AACGATGA | 0.172 |
| GTTTACGA | 0.0714 |
| ACCCATAT | 0.073 |
| ACTCGGAG | -0.124 |
| CAGGCGCG | -0.023 |
| CCGCTCCG | -0.0524 |
| CGAGAGCG | -0.0851 |
| TATCAAGA | 0.111 |
| AACGCTTG | -0.203 |
| ACCTGATC | -0.128 |
| TGTATAAA | 0.0714 |
| AAACCCTC | -0.0537 |
| ACAGAACC | -0.157 |
| GCACGGTA | -0.0872 |
| CTGACTCC | -0.208 |

| Sequence | PBM E-score |
| --- | --- |
| CTCTTAAC | 0.0444 |
| ACGAGAAC | 0.0812 |
| ACATTTAA | 0.193 |
| ATGTACGC | 0.0103 |
| GCCCGCAC | -0.186 |
| ACGATATG | 0.148 |
| AATGACCG | 0.178 |
| CCGTCGAC | -0.0651 |
| GCTGATAC | -0.0819 |
| CCCCAGGA | -0.313 |
| ACGTTGAC | 0.165 |
| CAAGGCGG | 0.00218 |
| AGAAGCTA | -0.0862 |
| ATACCCAA | -0.0566 |
| AATGGCAC | -0.0183 |
| GTCCCCAA | -0.00902 |
| GCAGGTAA | 0.0757 |
| AATGCGCG | 0.171 |
| GTGGTAGA | -0.2 |
| CTCGCGCA | 0.0158 |
| ACACGCCT | 0.00407 |
| ATCTGCTA | 0.126 |
| TAATCACA | 0.196 |
| ACGAAAGC | 0.0816 |
| ATGAACCG | -0.052 |

| Sequence | PBM E-score |
| --- | --- |
| ACCTTAAG | -0.0269 |
| CCCCGAAA | -0.0996 |
| AATCGTCG | -0.0141 |
| CGACCCCC | -0.41 |
| GAGGTCAC | 0.123 |
| ACCGGTGG | -0.357 |
| CCACAGAC | -0.19 |
| GGACTCAC | -0.2 |
| AAGTGTGT | 0.132 |
| GGAAAGGA | -0.18 |
| GACCTAAC | 0.0894 |
| AACGCCGG | -0.138 |
| CTAAACGA | -0.00391 |
| CTTCTCGA | -0.0306 |
| CATATAGA | 0.101 |
| ATCTGGTG | 0.198 |
| ATGCCCAA | -0.0689 |
| ACGCGATC | 0.144 |
| CGAGGACA | -0.163 |
| AGTCTGAT | -0.0795 |
| GAGACACC | -0.152 |
| GGCTTCAC | -0.0904 |
| GCCGATGA | -0.0164 |
| CCGTCAGA | -0.0924 |
| CCGCCGGC | -0.146 |

| Sequence | PBM E-score |
| --- | --- |
| CTTTCCCC | -0.0891 |
| ACTGAAAC | 0.234 |
| ACACAAAA | 0.158 |
| ATGTTGTA | 0.171 |
| AGCTGCTG | -0.0369 |
| ACTGTGTG | -0.0108 |
| AACCTAGT | -0.179 |
| ATTTTTAC | 0.201 |
| CGTCTATA | -0.0233 |
| ACAGTAGT | -0.0233 |
| GCGTAGAA | -0.0134 |
| CACGACCC | -0.145 |
| TAAAATAA | 0.238 |
| CGGACTTC | -0.199 |
| GCTCGACC | -0.0876 |
| ACAGTAAT | 0.196 |
| GGACAGTA | 0.0836 |
| CACCTGAA | 0.139 |
| CTGCTTTA | 0.0782 |
| TCGGTTCA | -0.106 |
| CACCTATC | -0.00186 |
| CTACCGGA | -0.268 |
